Results on 53 compounds are retold here after ChEMBL document CHEMBL4888484, “Replenishing the malaria drug discovery pipeline: Screening and hit evaluation of the MMV Hit Generation Library 1 (HGL1) against asexual blood stage Plasmodium falciparum ,using a nano luciferase reporter read-out” (2022).

Structures are written as SMILES. Screen size: about 150,000 compounds; about 540 (0.36%) showed an effect of 50% or more. This is one part of the list.

This test deals with Plasmodium falciparum. The test is described as follows: Primary screen in NF54 nanoGlo assay, in single point, at 2uM, 72h; a lower Z score goes with more inhibition. Conditions: timepoint 72 hour. It counts as functional, Erythrocyte.
For the compound `CC(C)n1ncc(C(=O)N[C@@H](C)COc2ccc(F)cc2F)c1C(F)(F)F`, the “% Inhibition” value is reported as -7% and the Z score turned out to be 0.73.

`CC1(NC(=O)c2ccc(O)cc2O)CCC1`: the “% Inhibition” value was determined as 3% and the Z score is recorded as -0.36.

For the compound `O=C1COc2ccc(S(=O)(=O)N3CCc4[nH]cnc4C3)cc2N1`, the “% Inhibition” value is reported as -21% and the Z score was 1.92.

On to `CC(C)(C)c1ccc(C(=O)N2CCN=C2N2CCN(c3cccc(Cl)c3)CC2)cc1`, for which the “% Inhibition” value was -5% and the Z score was 0.93.

Regarding `CN(C[C@H]1CCCN2CCCC[C@@H]12)C(=O)C1CCC(Cn2cnnn2)CC1` (stereo partly specified), the “% Inhibition” value is listed as 3% and the Z score is recorded as -0.38.

On to `Cc1cc(O)nc(C(=O)Nc2ccc(Oc3ccnc4ccccc34)cc2)c1`, for which the “% Inhibition” value is -4% and the Z score was found to be 0.7.

Turning to `CCn1cnc2c1CCN(C(=O)c1occ3c1CCC3)C2`, the “% Inhibition” value is on record as -16% and the Z score was found to be 1.46.

In the case of `CCOc1ncccc1NC(=O)CC(C)(C)C`, the “% Inhibition” value came out at 2% and the Z score is -0.27.

For `Nc1c(Cl)cc(C(=O)N2CCC[C@@H]2Cn2ccnc2)cc1Cl`, the “% Inhibition” value came to 14% and the Z score is given as -1.65.

For the compound `CCc1nnc(CN2CC3CCCC3(C(=O)OC)C2)o1` (stereo unspecified), the “% Inhibition” value was -18% and the Z score is recorded as 2.45.

Turning to `O=C(NC1CC(=O)N(C2CC2c2ccccc2)C1)C1CC1c1ccccc1F` (stereo unspecified), the “% Inhibition” value is recorded as -7% and the Z score came out at 0.97.

On to `CS(=O)(=O)Cc1nc(COc2cccc(-n3ccnc3)c2)cs1`, for which the “% Inhibition” value is on record as -2% and the Z score came to 0.17.

With `C[C@@H](c1ccccc1F)N(C)c1ccnc(N(C)C)n1`, the “% Inhibition” value was determined as 2% and the Z score was -0.29.

With `Cc1cc(C(=O)N[C@@H](C)CCc2ccc(C)o2)on1`, the “% Inhibition” value is recorded as 4% and the Z score is -0.56.

For `O=C(c1cccn1C1CC1)N1CCN(c2ccncc2)C[C@@H](O)C1`, the “% Inhibition” value is 5% and the Z score is on record as -0.65.

For the compound `CCN1CCN(C(=O)CN2C(=O)COc3ccc(C(=O)COc4ccc(Cl)c(C)c4)cc32)CC1`, the “% Inhibition” value is 2% and the Z score was -0.38.

`N#Cc1ccc(C(=O)N2CC[C@H](Nc3cccnc3)C2)cc1`: the “% Inhibition” value is recorded as -7% and the Z score worked out at 0.93.

For the compound `Cc1ccc(S(=O)(=O)NC(=O)c2scnc2C2CC2)s1`, the “% Inhibition” value is listed as -16% and the Z score was 1.4.

In the case of `Cc1ccc(C(=O)N2CCC3(CC2)N[C@H](C(=O)NCC(C)C)Cc2[nH]cnc23)cn1`, the “% Inhibition” value was -6% and the Z score is 1.04.

With `Cc1csc([C@H](C)NC(=O)c2ccn(C)c2C)n1`, the “% Inhibition” value was -14% and the Z score turned out to be 1.42.

Take `CC(C)(NC(=O)COC[C@H]1CCCCO1)c1nnc(N)s1`: the “% Inhibition” value was -10% and the Z score is given as 1.92.

With `Cc1ccc([C@]2(C)NC(=O)N(CC(=O)NC(=O)NCC(F)(F)F)C2=O)o1`, the “% Inhibition” value is given as 2% and the Z score was -0.38.

`Cc1ncccc1CCNC(=O)N[C@H]1C[C@H](c2ccccc2F)C1`: the “% Inhibition” value was -13% and the Z score is reported as 1.7.

For `O=C(NC[C@H]1CCCO1)N1CCc2[nH]c(-c3ccccc3)nc2C1`, the “% Inhibition” value is listed as -17% and the Z score came out at 2.48.

Take `O=C(NCc1ccc(OCC2CC2)nc1)[C@@H]1CCCN1C(=O)c1ccccc1O`: the “% Inhibition” value is -12% and the Z score was 1.63.

In the case of `COC1CCC(C)(CNC(=O)N2CCN(c3nncn3C)CC2)CC1` (stereo unspecified), the “% Inhibition” value is on record as 0% and the Z score is on record as -0.03.

On to `C[C@@H](CC#N)N(C)c1cnc(C#N)cn1`, for which the “% Inhibition” value stood at 1% and the Z score is listed as -0.15.

As to `CCc1cc(CNC(=O)NC2CCOC2c2ccccc2)on1` (stereo unspecified), the “% Inhibition” value is recorded as -6% and the Z score came to 1.05.

Regarding `COc1cccc([C@@]2(CC(=O)N3CCN(C(=O)c4ccco4)CC3)CC(=O)N(C3CCCC3)C2=O)c1`, the “% Inhibition” value came to 8% and the Z score is given as -1.52.

Consider `Cc1nc2ccccc2n1CCc1noc(-c2ccco2)n1`, for which the “% Inhibition” value is reported as -7% and the Z score turned out to be 1.01.

For `Cc1ccc(N2CCOC2=O)c(-c2ccccc2CN2CCOCC2)c1`, the “% Inhibition” value was -13% and the Z score came out at 1.99.

As for `Cc1noc(C)c1CNc1ccccc1-n1cncn1`, the “% Inhibition” value was -6% and the Z score was found to be 0.57.

Take `Cc1cc(OC2CCN(C(=O)CCn3cnc4ccccc4c3=O)CC2)cc(=O)n1C`: the “% Inhibition” value was -11% and the Z score is listed as 1.84.

As for `CC[C@@H](c1nc(C)c(C)s1)n1cc(-c2ncc[nH]2)nn1`, the “% Inhibition” value is given as -16% and the Z score was found to be 1.73.

As for `N#Cc1ccc(F)c(CS(=O)(=O)NC2CC3CC2C2CCCC32)c1` (stereo unspecified), the “% Inhibition” value is recorded as -12% and the Z score was 2.07.

On to `N#Cc1cc(-c2ccccc2)sc1NC(=O)COC[C@H]1CCCO1`, for which the “% Inhibition” value is given as -1% and the Z score is on record as 0.21.

Regarding `O=C1[C@H]2CCCC2=Nc2ccccc2N1Cc1ccc(F)cc1`, the “% Inhibition” value was -9% and the Z score was 0.97.

In the case of `CCN(C)S(=O)(=O)N(C)[C@@H](C)Cc1ccc(OC)cc1`, the “% Inhibition” value was -14% and the Z score is reported as 2.6.

Regarding `CN(CCCCO)C(=O)C1(N(C)C(=O)OC(C)(C)C)CCC1`, the “% Inhibition” value worked out at 21% and the Z score is -2.64.

On to `Cc1cccc(-c2noc(C3(c4cccnc4)CC3)n2)n1`, for which the “% Inhibition” value is on record as 22% and the Z score is -2.79.

`c1nc(N2CCOCC2)cc(N2C[C@@H]3[C@@H]4CC[C@@H](C4)[C@@H]3C2)n1`: the “% Inhibition” value was determined as 4% and the Z score is given as -0.62.

In the case of `Cn1cc(Cl)cc1C(=O)N1CCC2(CC1)[C@H](O)C[C@@H]2O`, the “% Inhibition” value is -13% and the Z score is on record as 1.67.

Turning to `Cn1ccc(B2OC(C)(C)C(C)(C)O2)n1`, the “% Inhibition” value is on record as -10% and the Z score is 1.09.

For `CCS(=O)(=O)Oc1cc(CN(CC(C)C)C(=O)NC(C)(C)C)ccc1OC`, the “% Inhibition” value was -16% and the Z score was 1.56.

For the compound `Cc1ccc(C(=O)N2CCC(c3ocnc3C(=O)O)CC2)c(O)c1`, the “% Inhibition” value is reported as 17% and the Z score was -2.12.

With `CCOC(=O)[C@H]1CCCN(C(=O)c2cnc(-c3cccc(C)c3)nc2N2CCN(c3ccccc3F)CC2)C1`, the “% Inhibition” value is -20% and the Z score turned out to be 2.12.

`CC1CC(Nc2ccnn2CC2CCOC2)CN1C1CC1` (stereo unspecified): the “% Inhibition” value amounted to 7% and the Z score was -0.59.

For the compound `Cc1cccc(N(C)S(=O)(=O)c2c(C)n[nH]c2C)n1`, the “% Inhibition” value is reported as -7% and the Z score is 0.89.

As to `COC1CC2C(=O)N(C3CCN(Cc4ccccc4)CC3)C(=O)N2C1` (stereo unspecified), the “% Inhibition” value is -8% and the Z score is reported as 0.98.

With `Cc1ccc2c(=O)c(-c3nc(-c4ccc(Cl)cc4)no3)cn(Cc3cccc(F)c3)c2n1`, the “% Inhibition” value is 8% and the Z score is on record as -0.73.

For the compound `C[C@@H](C(=O)NCc1ccccc1)N(C)Cc1cscn1`, the “% Inhibition” value was -10% and the Z score is 1.61.

With `OCC1CCN(c2ncc3c(n2)CCC[C@@H]3NC2CCCCCCC2)CC1`, the “% Inhibition” value is -3% and the Z score was 0.4.

For the compound `O=C(Nc1cccnc1)c1cccc(S(=O)(=O)NC[C@H]2CCCCO2)c1`, the “% Inhibition” value is -3% and the Z score was 0.41.
